From PubChem BioAssay AID1918956 (Molecular Pharmacology Branch, DTP, NCI, 2023)
The source holds more than one record for some entries. The other results are left out here. The source may hold further records. Values that stand side by side are repeated measurements across runs, samples, wells, individuals or studies. Brackets with × say how often a value occurs here.

Tested on: OVCAR-5 complex spheroids, viability
Experiment: Anticancer human tumor OVCAR-5 cell line growth inhibition;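 also: spheroids exposed to agents for seven days; 100% = DMSO vehicle control wells viability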
Settings: stronger effect = lower value
From the text: Multicellular complex tumor spheroid response to LSD1 Inhibitor Iadademstat in combination with a variety of drugs and investigational agents in selected tumor cell lines
The current study was undertaken to assess response to LSD1 inhibitors in combination with standard-of-care drugs and investigational agents in solid tumor complex spheroid models as well as in the K-562 leukemia. Complex spheroids include a stromal component modeled by human endothelial cells (HUVEC) and fibroblasts modeled by human mesenchymal stem cells (MSCs). The concentration ranges selected for each drug and investigational agent were based upon clinically achievable concentrations if the clinical Cmax of the agent was known.
Compounds. The drugs and investigational agents used in this study are listed on Table 1. All of the agents used, including staurosporine (NSC755774) and gemcitabine (NSC613327), were obtained from the Developmental Therapeutics Program, NCI. FDA-approved anticancer drugs are available from the NCI at http://dtp.nci.nih.gov/branches/dscb/oncology_drugset_explanation.html. Drugs and investigational agents were >95% pure by proton nuclear magnetic resonance (NMR) and liquid chromatography/mass spectrometry (LC/MS). Stock solutions were prepared at 400x in DMSO, stored at -70 degrees C, and diluted in fresh medium prior to their use. The final concentration of DMSO in cell culture wells never exceeded 0.25% (v/v). The FDA-approved anticancer drug set is available from the Developmental Therapeutics Program at https://dtp.cancer.gov/organization/dscb/obtaining/available_plates.htm. All drugs and investigational agents were tested over a range starting from a high concentration at or near the clinical Cmax and decreasing in half-log increments. If the clinical Cmax for an agent had not been determined, the highest concentration tested was 10 microM.
Cell Lines. The patient-derived cancer cell (PDC) lines: 292921-168-R-J2-PDC, K24384-001-R-PDC, and 521955-158-R2-J5-PDC pancreatic carcinomas, 556581-035-R-J1 ovarian carcinoma, 324938-238-R-J1-PDC, 855422-203-R-J1-PDC and 883617-216-R-J1-PDC urothelial bladder carcinomas, 743489-274-T-PDC renal cell carcinoma, 138582-R-J1 Merkel cell tumor, K60290-347-R-J1 and K57222-313-R-J1-PDC glioblastomas, 653999-131-R-J2-PDC, LG0703-F948-PDC, and 349418-098-R-PDC non-small cell lung carcinomas, 885512-296-R-J2-PDC, 171881-019-R-J1-PDC breast carcinomas and 186277-243-T-J2-PDC and 233499-124-R-J2-PDC colon carcinomas were obtained from the NCI Patient-Derived Models Repository (PDMR, https://pdmr.cancer.gov). The established cell lines NCI/ADR-RES (RRID:CVCL_14520 and OVCAR-5 (RRID:CVCL_1628) ovarian carcinomas, 786-O (RRID:CVCL_1051) and A498 […] renal cell carcinoma, NCI-H211 (ATCC, cat. CRL-5824; RRID:CVCL_1529), NCI-H196 (ATCC, cat. CRL-5823, RRID:CVCL_1509), SW 1271 (ATCC, cat. CRL-2177, RRID:CVCL_1716) and NCI-H1876 (ATCC, cat. CRL-5902, RRID:CVCL_1503) small cell lung carcinomas, MDA-MB-231 (RRID:CVCL_0062) and MDA-MB-468 (RRID:CVCL_0419)breast carcinomas (10-12). Pooled donor human umbilical vein endothelial cells (HUVEC, Lonza, cat. CC-2519) and human mesenchymal stem cells (hMSC, Lonza, cat. PT-2501) were purchased from Lonza (Walkersville, MD).
Cell Culture. All cells were maintained in an incubator at 37 degrees C and 5% CO2 with 95% humidity. The PDC lines were cultured according to standard operating procedures established by the NCI PDMR (https://pdmr.cancer.gov). Briefly all PDCs were thawed and cultured in Matrigel-coated flasks prepared with a working solution of 1X Ham's F-12 nutrient mix, without supplementation (Invitrogen, Waltham, MA, cat. 11765054), 100 U/mL penicillin-streptomycin (Invitrogen, cat. 15140122), and 2.5% Matrigel (Corning Inc., Corning, NY, cat. 354248) for the first three passages. […]

SMILES | viability, T/C (compound alone 1 µM) | viability, T/C (compound alone 3.16 µM) | viability, T/C (compound alone 10 µM) | viability, T/C (compound alone 0.316 µM)
NC1CCC(NC2CC2c2ccccc2)CC1 (stereo unspecified) | 97.1, 98.2, 100 (3×), 91.9, 116, 95.2, 79.4, 90.5, 98.9, 104 (3×), 96, 102, 87.8, 93.5, 85.6, 79.3, 105, 107, 101, 95.1, 99.4% | 95.7, 93.7 (2×), 99.9, 101 (2×), 95, 98.4, 97, 105, 92.8, 75.5, 104 (2×), 90.7, 92.2, 92.4, 103, 82.8, 97.3, 99.6, 91.4, 90.3, 97.1, 96.2% | 86.5, 97.9, 87, 81, 91.2, 81.5 (2×), 73.9, 76.8, 85.9, 87.3, 81.9, 86.8, 92 (2×), 84.7, 84.9, 91.7, 101, 93.4, 85.3, 76.7, 77.9% | 
NC1CC1c1ccc(-c2cccc(O)c2)cc1 (stereo unspecified) | 96.5, 104 (2×), 89.1, 102 (2×), 96.4, 109, 94.8, 110, 65.5, 108, 87.8, 96.6, 96.3, 88.6, 90, 88.1, 106 (2×), 80.3, 99.5, 95.8, 88.9, 87.4% | 100, 90.6 (2×), 90.9, 91.1, 91, 90.1, 86.1, 78.8, 91.3, 85.9, 92 (2×), 86.9, 93.6, 86.7, 98.3, 85.5, 102, 74.9, 92.2, 77.7, 94.8, 90.3, 93.8% |  | 109 (2×), 103, 105, 108 (2×), 101 (2×), 89.2, 86.7, 90.8, 107 (2×), 93.4, 102, 96.5, 112, 104, 99.2, 91.4, 95.4, 100, 96.6, 93.3, 98.2%
